According to publication PMC9911399, “Two distinct binding modes provide the RNA-binding protein RbFox with extraordinary sequence specificity”:
Where a chain is given by its changes, count along the chain named. This is one part of the list.

B1: ACAUCCG (DNA:RNA)
RNA: GGGAGACCGGAAUUCAGAUUGUCCACAUCCGUUAAAUCCCGUCGUAGCCACCA
DNA 1: CAATCTGAATTCCGGTCTCCC
DNA 2: TGGTGGCTACGACGGGATT
B2: CCGGGAC (DNA:RNA)
RNA: B1 RNA with A25C, A27G, U28G, C29G, C30A, G31C
DNA 1: CAATCTGAATTCCGGTCTCCC
DNA 2: TGGTGGCTACGACGGGATT
B3: GCUCCAA (DNA:RNA)
RNA: B1 RNA with A25G, A27U, U28C, C30A, G31A
DNA 1: CAATCTGAATTCCGGTCTCCC
DNA 2: TGGTGGCTACGACGGGATT
B4: CCUCUUA (DNA:RNA)
RNA: B1 RNA with A25C, A27U, U28C, C29U, C30U, G31A
DNA 1: CAATCTGAATTCCGGTCTCCC
DNA 2: TGGTGGCTACGACGGGATT
B5: AUGCUCU (DNA:RNA)
RNA: B1 RNA with C26U, A27G, U28C, C29U, G31U
DNA 1: CAATCTGAATTCCGGTCTCCC
DNA 2: TGGTGGCTACGACGGGATT
B6: CUGUCCC (DNA:RNA)
RNA: B1 RNA with A25C, C26U, A27G, G31C
DNA 1: CAATCTGAATTCCGGTCTCCC
DNA 2: TGGTGGCTACGACGGGATT
B7: CUAAGUA (DNA:RNA)
RNA: B1 RNA with A25C, C26U, U28A, C29G, C30U, G31A
DNA 1: CAATCTGAATTCCGGTCTCCC
DNA 2: TGGTGGCTACGACGGGATT
B8: ACCCCGC (DNA:RNA)
RNA: B1 RNA with A27C, U28C, C30G, G31C
DNA 1: CAATCTGAATTCCGGTCTCCC
DNA 2: TGGTGGCTACGACGGGATT
B9: GUAAGCC (DNA:RNA)
RNA: B1 RNA with A25G, C26U, U28A, C29G, G31C
DNA 1: CAATCTGAATTCCGGTCTCCC
DNA 2: TGGTGGCTACGACGGGATT
B10: GCGGUCU (DNA:RNA)
RNA: B1 RNA with A25G, A27G, U28G, C29U, G31U
DNA 1: CAATCTGAATTCCGGTCTCCC
DNA 2: TGGTGGCTACGACGGGATT
B11: UUUCUCU (DNA:RNA)
RNA: B1 RNA with A25U, C26U, A27U, U28C, C29U, G31U
DNA 1: CAATCTGAATTCCGGTCTCCC
DNA 2: TGGTGGCTACGACGGGATT
B12: UGAAUGG (DNA:RNA)
RNA: B1 RNA with A25U, C26G, U28A, C29U, C30G
DNA 1: CAATCTGAATTCCGGTCTCCC
DNA 2: TGGTGGCTACGACGGGATT
B13: GGUACAG (DNA:RNA)
RNA: B1 RNA with A25G, C26G, A27U, U28A, C30A
DNA 1: CAATCTGAATTCCGGTCTCCC
DNA 2: TGGTGGCTACGACGGGATT
B14: CUAAUAA (DNA:RNA)
RNA: B1 RNA with A25C, C26U, U28A, C29U, C30A, G31A
DNA 1: CAATCTGAATTCCGGTCTCCC
DNA 2: TGGTGGCTACGACGGGATT
B15: AGCCGCA (DNA:RNA)
RNA: B1 RNA with C26G, A27C, U28C, C29G, G31A
DNA 1: CAATCTGAATTCCGGTCTCCC
DNA 2: TGGTGGCTACGACGGGATT
B16: UUCCGCU (DNA:RNA)
RNA: B1 RNA with A25U, C26U, A27C, U28C, C29G, G31U
DNA 1: CAATCTGAATTCCGGTCTCCC
DNA 2: TGGTGGCTACGACGGGATT
B17: CCCGUAC (DNA:RNA)
RNA: B1 RNA with A25C, A27C, U28G, C29U, C30A, G31C
DNA 1: CAATCTGAATTCCGGTCTCCC
DNA 2: TGGTGGCTACGACGGGATT
B18: UGUUGCC (DNA:RNA)
RNA: B1 RNA with A25U, C26G, A27U, C29G, G31C
DNA 1: CAATCTGAATTCCGGTCTCCC
DNA 2: TGGTGGCTACGACGGGATT
B19: GUUCAGA (DNA:RNA)
RNA: GGGAGACCGGAAUUCAGAUUGUCCGUUCAGAUUAAAUCCCGUCGUAGCCACCA
DNA 1: CAATCTGAATTCCGGTCTCCC
DNA 2: TGGTGGCTACGACGGGATT
B20: GACUGAG (DNA:RNA)
RNA: B1 RNA with A25G, C26A, A27C, C29G, C30A
DNA 1: CAATCTGAATTCCGGTCTCCC
DNA 2: TGGTGGCTACGACGGGATT
B21: UUGGGUA (DNA:RNA)
RNA: B19 RNA with G25U, U27G, C28G, A29G, G30U
DNA 1: CAATCTGAATTCCGGTCTCCC
DNA 2: TGGTGGCTACGACGGGATT
B22: UACAUAU (DNA:RNA)
RNA: GGGAGACCGGAAUUCAGAUUGUCCUACAUAUUUAAAUCCCGUCGUAGCCACCA
DNA 1: CAATCTGAATTCCGGTCTCCC
DNA 2: TGGTGGCTACGACGGGATT
B23: AGCAUCG (DNA:RNA)
RNA: B1 RNA with C26G, A27C, U28A, C29U
DNA 1: CAATCTGAATTCCGGTCTCCC
DNA 2: TGGTGGCTACGACGGGATT
B24: CAUUAGU (DNA:RNA)
RNA: B19 RNA with G25C, U26A, C28U, A31U
DNA 1: CAATCTGAATTCCGGTCTCCC
DNA 2: TGGTGGCTACGACGGGATT
B25: CUGAGUU (DNA:RNA)
RNA: B22 RNA with U25C, A26U, C27G, U29G, A30U
DNA 1: CAATCTGAATTCCGGTCTCCC
DNA 2: TGGTGGCTACGACGGGATT
B26: CAGUUUC (DNA:RNA)
RNA: B22 RNA with U25C, C27G, A28U, A30U, U31C
DNA 1: CAATCTGAATTCCGGTCTCCC
DNA 2: TGGTGGCTACGACGGGATT
B27: AUUGUCG (DNA:RNA)
RNA: B1 RNA with C26U, A27U, U28G, C29U
DNA 1: CAATCTGAATTCCGGTCTCCC
DNA 2: TGGTGGCTACGACGGGATT
B28: UUCGGGC (DNA:RNA)
RNA: B19 RNA with G25U, U27C, C28G, A29G, A31C
DNA 1: CAATCTGAATTCCGGTCTCCC
DNA 2: TGGTGGCTACGACGGGATT
B29: GCGUCCA (DNA:RNA)
RNA: B1 RNA with A25G, A27G, G31A
DNA 1: CAATCTGAATTCCGGTCTCCC
DNA 2: TGGTGGCTACGACGGGATT
B30: UACAACC (DNA:RNA)
RNA: B22 RNA with U29A, A30C, U31C
DNA 1: CAATCTGAATTCCGGTCTCCC
DNA 2: TGGTGGCTACGACGGGATT
B31: GUGCUAA (DNA:RNA)
RNA: B19 RNA with U27G, A29U, G30A
DNA 1: CAATCTGAATTCCGGTCTCCC
DNA 2: TGGTGGCTACGACGGGATT

The binders below were run against T1, RBFOX1 RRM RbFoxmut (Fox-RRM*) (Homo sapiens, UniProt Q9NWB1 109-208, R118D;E147R;N151S;E152T) (assay: EMSA; HiTS-Eq, 1 nM pool, 10 min; buffer printed only for the single-RNA assays: 10 mM Tris pH 7.5, 150 mM NaCl, 3.4 mM EDTA, 0.001% NP-40, 30 C). Details: tags: His6 N-terminal (pET28a); label: 5' 32P.
T1 sequence: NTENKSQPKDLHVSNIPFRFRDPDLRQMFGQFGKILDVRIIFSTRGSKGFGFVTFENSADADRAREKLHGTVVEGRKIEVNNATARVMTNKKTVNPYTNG
Summary of the method: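 Relative association constants, normalised to the cognate motif, were derived by comparing read counts of each RNA species with those of the control reaction. The RNA sequenced was the free fraction, separated by 8% native PAGE after a 10 min equilibration in 50 µL of 1 nM 5′-radiolabelled RNA (7 randomized nucleotides) with increasing concentrations of purified wild-type or mutant RbFox RRM.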

Binder | binding signal
B1 | 0.121 KA relative to UGCAUGU
B2 | 0.086 KA relative to UGCAUGU
B3 | 0.0756 KA relative to UGCAUGU
B4 | 0.102 KA relative to UGCAUGU
B5 | 0.0844 KA relative to UGCAUGU
B6 | 0.0693 KA relative to UGCAUGU
B7 | 0.137 KA relative to UGCAUGU
B8 | 0.0801 KA relative to UGCAUGU
B9 | 0.1 KA relative to UGCAUGU
B10 | 0.0966 KA relative to UGCAUGU
B11 | 0.0757 KA relative to UGCAUGU
B12 | 0.339 KA relative to UGCAUGU
B13 | 0.0846 KA relative to UGCAUGU
B14 | 0.0927 KA relative to UGCAUGU
B15 | 0.121 KA relative to UGCAUGU
B16 | 0.0662 KA relative to UGCAUGU

Binder | binding signal
B17 | 0.078 KA relative to UGCAUGU
B18 | 0.296 KA relative to UGCAUGU
B19 | 0.151 KA relative to UGCAUGU
B20 | 0.179 KA relative to UGCAUGU
B21 | 0.211 KA relative to UGCAUGU
B22 | 0.0634 KA relative to UGCAUGU
B23 | 0.437 KA relative to UGCAUGU
B24 | 0.137 KA relative to UGCAUGU
B25 | 0.0992 KA relative to UGCAUGU
B26 | 0.142 KA relative to UGCAUGU
B27 | 0.136 KA relative to UGCAUGU
B28 | 0.0523 KA relative to UGCAUGU
B29 | 0.0731 KA relative to UGCAUGU
B30 | 0.0738 KA relative to UGCAUGU
B31 | 0.0948 KA relative to UGCAUGU
